Data reported in patent US20250043022A1 (JIANGSU HENGRUI PHARMACEUTICALS, published 2025).

How the values were obtained:
[1] = molecular target: T1, human PSMA on cells (Cho-hPSMA, CHO-K1 cells overexpressing full-length human PSMA) (human, UniProt Q04609); experiment: flow cytometry, Cho-hPSMA; antibody at 20 nM
T1 construct: whole, on cells; also called cell surface PSMA; PSMA-expressing Lncap cells
Method: (§1) Experiment 1: Cho-hPSMA was cultured in F12 medium with 10% FBS. The medium to which cells were inoculated was incubated in a 37° C., 5% CO₂ incubator for 2 days, and cells were added to a cell plate at 1×10⁵ cells/well and washed by centrifugation. Antibodies were serially diluted, and the antibody solutions were added to the cell plate at 100 μL/well. The plate was incubated at 4° C. for 1 h and then washed. An AF488-Goat Anti-human IgG Fc fluorescent secondary antibody dilution (1:400) was added to the cell plate at 100 μL/well, and the plate was incubated at 4° C. for 1 h and then washed. PBS was added to the cell plate at 100 μL/well before plate reading.
(§2) Experiment 3: The binding activity of bispecific antibodies was measured using the method of experiment 1.

[2] = molecular target: T1, human PSMA on cells (Cho-hPSMA, CHO-K1 …); experiment: cell-based or functional assay
[3] = molecular target: T1, human PSMA on cells (Cho-hPSMA, CHO-K1 …); experiment: flow cytometry, Cho-hPSMA; antibody at 0.8 nM
Method: as §1, §2

[4] = molecular target: T1, human PSMA on cells (Cho-hPSMA, CHO-K1 …); experiment: flow cytometry, Cho-hPSMA; antibody at 100 nM
Method: as §1, §2

[5] = molecular target: T1, human PSMA on cells (Cho-hPSMA, CHO-K1 …); experiment: flow cytometry, Cho-hPSMA; antibody at 4 nM
Method: as §1, §2

[6] = molecular target: T1, human PSMA on cells (Cho-hPSMA, CHO-K1 …); experiment: cell ELISA (OD450), Cho-hPSMA cells
Method: Experiment 2: Cells were cultured and inoculated onto a cell plate using the same method as in Experiment 1. The antibodies were serially diluted, and the antibody solutions were added to the cell plate at 100 μL/well. The plate was incubated at 4° C. for 1 h and then washed. An HRP-Goat Anti-human IgG (H+L) secondary antibody dilution (1:8000) was added to the cell plate at 100 μL/well, and the plate was incubated at 4° C. for 1 h and then washed by centrifugation. After color development with TMB, the reaction was stopped with 0.1 M sulfuric acid, and OD450 values were measured.

[7] = molecular target: T2, human PSMA antigen (R&D SYSTEM, 4234-ZN-010) (human, UniProt Q04609); experiment: ELISA, plate-bound PSMA antigen
T2 construct: bought antigen
Method: To test the ability of the PSMA-targeting humanized antibodies of the present disclosure to bind to PSMA antigen, the ELISA method was used in this test example to measure the binding of the PSMA-targeting humanized antibodies to human PSMA antigen (purchased from R&D SYSTEM, 4234-ZN-010). The specific steps are as follows: A 96-well plate was coated with PSMA antigen at 1 μg/well and placed at 4° C. overnight. After the supernatant was discarded, the plate was blocked with 5% skim milk for 2 h. Different concentrations of humanized antibodies were prepared using 1% BSA. The initial concentration was 10 μg/mL and was serially diluted 4-fold to obtain 12 concentrations. After the blocked 96-well plate was washed twice, the […] was added, and the plate was incubated at 4° C. for 1 h. After four washes, the plate was incubated with Strepidation-HRP secondary antibody (1:10,000) at 4° C. for 1 h. After color development with TMB, the reaction was stopped with 0.1 M sulfuric acid.

B1: 19-F4 (bispecific antibody)
heavy: not shown
light: DIQMTQSPSSLSASVGDRVTITCRASQDISKYLNWYQQKPGKAPKLLIYYTSSLHSGVPSRFSGSGSGTDYTLTISSLQPEDFATYYCQQGNRLPRTFGGGTKVEIKRTVAAPSVFIFPPSDEQLKSGTASVVCLLNNFYPREAKVQWKVDNALQSGNSQESVTEQDSKDSTYSLSSTLTLSKADYEKHKVYACEVTHQGLSSPVTKSFNRGEC
notes: PSMA x CD3, Format 4
fluorescence intensity [1]: 29300
cytotoxic activity against Lncap, EC50 [2]: 0.0109 nM
cytotoxic activity against Lncap, Maximum lysis rate % [2]: 64.9%
fluorescence intensity [3]: 6910
fluorescence intensity [4]: 30800
fluorescence intensity [5]: 20400

B2: hu19H1L1 (antibody, human IgG1, kappa)
heavy: EVQLVESGGGLVQPGGSLRLSCAASGFTFSDYYMAWVRQAPGKGLEWVANINYDGSSTYYLDSLKSRFTISRDNAKNSLYLQMNSLRAEDTAVYYCARGGDYWDAMDYWGQGTTVTVSS[no letters for human IgG1 constant region]
light: B1 light with Y71F
EC50 [6]: 0.0945 µg/mL

B3: hu19H1L2 (antibody, human IgG1, kappa)
heavy: B2 heavy
light: B1 light
EC50 [6]: 0.112 µg/mL

B4: hu19H2L1 (antibody, human IgG1, kappa)
heavy: B2 heavy with Q3K
light: B1 light with Y71F
EC50 [6]: 0.0919 µg/mL

B5: hu19H2L2 (antibody, human IgG1, kappa)
heavy: B2 heavy with Q3K
light: B1 light
EC50 [6]: 0.0889 µg/mL
EC50 [7]: 0.0837 µg/mL
Top (maximum absorbance) [7]: 1.58 absorbance

Substitutions are numbered along the chain they refer to.
